The text below walks through data of PubChem BioAssay AID488969 (Vanderbilt High Throughput Screening Facility, 2010).

Over roughly 110,000 compounds, “z-score” has its median near -0.1; the highest 2% begin near 2. Some of the results follow.

The target of the assay is Metabotropic glutamate receptor 8 (Rattus norvegicus) (UniProt P70579). The assay is described as follows: mGluR8 Gi/Go-coupled signaling modulation – cell-based, rat, thallium flux, HTS, primary screen (AID 488969). The note with it: HEK293 rat mGluR8, GIRK (G protein-gated inwardly rectifying potassium channel) thallium flux, FluoZin2; at 10 µM; stronger effect = higher value; submaximal glutamate (EC20) added with thallium.
Chain of UniProt P70579 (P70579 whole entry, looked up): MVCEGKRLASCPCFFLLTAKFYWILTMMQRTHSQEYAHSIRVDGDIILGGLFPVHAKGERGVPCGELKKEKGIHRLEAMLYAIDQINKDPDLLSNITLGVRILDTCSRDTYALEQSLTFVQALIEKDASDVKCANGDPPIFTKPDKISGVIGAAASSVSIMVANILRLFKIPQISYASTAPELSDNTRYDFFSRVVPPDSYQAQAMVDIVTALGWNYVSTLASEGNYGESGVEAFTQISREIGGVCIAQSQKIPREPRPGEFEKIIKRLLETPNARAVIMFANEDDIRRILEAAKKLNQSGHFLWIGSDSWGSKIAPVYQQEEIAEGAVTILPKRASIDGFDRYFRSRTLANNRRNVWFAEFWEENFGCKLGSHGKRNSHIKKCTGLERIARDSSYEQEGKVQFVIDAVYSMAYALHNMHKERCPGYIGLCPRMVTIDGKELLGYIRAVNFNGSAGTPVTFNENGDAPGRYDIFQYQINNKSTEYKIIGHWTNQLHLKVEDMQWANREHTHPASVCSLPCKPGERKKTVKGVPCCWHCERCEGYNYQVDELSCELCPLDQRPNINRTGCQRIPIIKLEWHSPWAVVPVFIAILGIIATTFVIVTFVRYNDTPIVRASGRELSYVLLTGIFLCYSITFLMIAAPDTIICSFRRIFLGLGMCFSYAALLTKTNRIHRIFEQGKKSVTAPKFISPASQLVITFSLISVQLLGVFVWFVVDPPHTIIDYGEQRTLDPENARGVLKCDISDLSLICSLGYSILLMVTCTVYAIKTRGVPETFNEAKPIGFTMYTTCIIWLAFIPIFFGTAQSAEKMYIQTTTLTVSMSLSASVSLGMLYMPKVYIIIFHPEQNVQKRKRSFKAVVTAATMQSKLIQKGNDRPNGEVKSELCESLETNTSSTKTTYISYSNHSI
`CCOc1cc(N2CCOCC2)c(OCC)cc1NC(=O)CSc1cccc[n+]1[O-]`: the z-score is -0.193.

On to `COc1ccc(-c2cn(-c3ccc(C)cc3)c(=O)n2CC(=O)Nc2cccc(F)c2)cc1`, for which the z-score came to 0.0589.

`CSc1ccc(CNc2ccc(Cl)cc2)cc1` registered a z-score of -0.0523.

Regarding `Cc1ccc(CNC(=O)CCn2nc(-c3ccc(Cl)cc3)ccc2=O)cc1`, the z-score stood at 0.0696.

In the case of `O=C(CNC(c1ccccc1)c1ccccc1)Nc1c(F)cccc1F`, the z-score came out at 0.24.

On to `Cc1ccc2c(c1)c(N=NC(N)=S)c(O)n2Cc1ccccc1`, for which the z-score was determined as 2.88.

With `N#Cc1c[nH]n2c(=O)c3c(nc12)CCCC3`, the z-score is -0.482.

`CCN(Cc1cc2cc(C)ccc2[nH]c1=O)C(=O)c1cccc(OC)c1` showed a z-score of -0.184.

`O=C(c1ccc(COc2c(F)c(F)cc(F)c2F)o1)N1CCN(c2ccc(Cl)cc2)CC1`: the z-score was -0.254.

Molecule `CN1CCN(S(=O)(=O)c2ccc(NC(=O)C3CCCO3)cc2)CC1` (stereo not given) had a z-score of 0.199.

Molecule `CC(=O)N1CCN(c2ccc(NC(=O)COc3ccc(Cl)cc3Cl)cc2)CC1` came in with a z-score of -0.128.

`Nc1nc(CN2CCCCC2)cs1`: the z-score was determined as 0.0391.

Consider `Cc1nc(SCC(O)CCl)c([N+](=O)[O-])[nH]1` (stereo not given), for which the z-score stood at 0.302.

Turning to `CC1(C)CC(=O)c2cc3c(nc2C1)CC(C)(C)CC3=O`, the z-score was 0.0627.

The molecule `CCNc1nc(NCC)n2c(SC(C(=O)Nc3cc(Cl)cc(Cl)c3)c3ccccc3)nnc2n1` (stereo not given) showed a z-score of -0.372.

Take `CCN(CC)/C(=N/S(=O)(=O)c1ccc(C)cc1)c1ccccc1`: the z-score was -0.0744.

`Cc1ccc(S(=O)(=O)N2CCC(n3nnc4cc(C)ccc43)CC2)cc1` returned a z-score of 0.616.

With `CN1CCN(c2nc(-c3ccco3)cc(C(F)(F)F)n2)CC1`, the z-score stood at 0.276.

The molecule `CC1CCN(C(=O)CSc2nnc(CNc3ccc(F)cc3)n2Cc2ccco2)CC1` showed a z-score of -0.0551.

Turning to `O=C1NC(=O)C2C1C(c1ccccc1)N1C3C(=O)NC(=O)C3C(c3ccccc3)N21` (stereo not given), the z-score came out at 0.0962.

Turning to `Cc1cnc2cc([N+](=O)[O-])ccc2n1`, the z-score turned out to be 0.0184.

Consider `COC(=O)c1ccccc1NC(=O)c1cncc(Br)c1`, for which the z-score was determined as 0.0863.

Molecule `COc1cccc(NC(=O)CSc2ncnc3c2oc2ccccc23)c1` yielded a z-score of -0.957.

`COc1ccc(OC)c(NC(=O)CSc2nnc(-c3ccco3)n2-c2ccccc2)c1` displayed a z-score of -0.852.

For `Oc1c(-c2cc(-c3ccco3)[nH]n2)ccc2ccccc12`, the z-score is -0.0554.

As to `COc1cccc(N/C(N)=N/c2nc(C(F)(F)F)cc(=O)[nH]2)c1`, the z-score was -0.116.

On to `O=C(CSc1nnc(C2COc3ccccc3O2)o1)N1CCOCC1` (stereo not given), for which the z-score stood at 0.302.

As for `NC(=S)Cc1nc2n(n1)Cc1ccccc1-2`, the z-score is -0.229.

The molecule `O=C(Cn1ccc2ccccc2c1=O)NCCC(=O)N1CCN(c2cccc(Cl)c2)CC1` displayed a z-score of 0.0135.

Turning to `Cc1cc(C)n(-c2cc(N3CCN(S(=O)(=O)c4ccc(Cl)cc4)CC3)ccc2[N+](=O)[O-])n1`, the z-score was -0.751.
